Viability of KB3-1 and Nalm-6 cells after 48 h of drug alone (CellTiter-Glo), 11 doses over about 4.5 log units. % of DMSO wells, lower = more cell loss; AC50 from the fitted curve, lower = more potent. No active / inactive call. Nalm-6 was screened in two runs. AC50 is listed only for well-fitted inhibitory curves. KB3-1 is a HeLa-derived carcinoma line, Nalm-6 a B-cell precursor leukaemia line.
Columns and labels:
[1] = system: KB3-1; assay: viability (% of DMSO control); higher = more viable cells
Procedure: (§1)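 Eleven-dose screen of the NCATS MIPE 3 library on cells without co-treatment; CellTiter-Glo after 48 h, as % of DMSO wells.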

[2] = system: Nalm-6; assay: as above
Procedure: as §1

[3] = system: KB3-1; assay: log AC50 of viability decrease (48 h) (log10 M); higher = less potent
Procedure: (§2)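 Eleven-dose screen of the NCATS MIPE 3 library on cells without co-treatment; CellTiter-Glo after 48 h. AC50 from the curve fit; only inhibitory curves of the better fit classes are listed.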

[4] = system: Nalm-6; assay: as above
Procedure: as §2

| SMILES | viability ([1]; 0.00078 µM) | viability ([1]; 0.00234 µM) | viability ([1]; 0.00702 µM) | viability ([1]; 0.0211 µM) | viability ([1]; 0.0632 µM) | viability ([1]; 0.19 µM) | viability ([1]; 0.569 µM) | viability ([1]; 1.71 µM) | viability ([1]; 5.12 µM) | viability ([1]; 15.4 µM) | viability ([1]; 46.1 µM) | viability ([2]; run: 1, 0.00078 µM) | viability ([2]; run: 1, 0.00234 µM) | viability ([2]; run: 1, 0.00702 µM) | viability ([2]; run: 1, 0.0211 µM) | viability ([2]; run: 1, 0.0632 µM) | viability ([2]; run: 1, 0.19 µM) | viability ([2]; run: 1, 0.569 µM) | viability ([2]; run: 1, 1.71 µM) | viability ([2]; run: 1, 5.12 µM) | viability ([2]; run: 1, 15.4 µM) | viability ([2]; run: 1, 46.1 µM) | viability ([2]; run: 2, 0.00078 µM) | viability ([2]; run: 2, 0.00234 µM) | viability ([2]; run: 2, 0.00702 µM) | viability ([2]; run: 2, 0.0211 µM) | viability ([2]; run: 2, 0.0632 µM) | viability ([2]; run: 2, 0.19 µM) | viability ([2]; run: 2, 0.569 µM) | viability ([2]; run: 2, 1.71 µM) | viability ([2]; run: 2, 5.12 µM) | viability ([2]; run: 2, 15.4 µM) | viability ([2]; run: 2, 46.1 µM) | log AC50 of viability decrease [3] | log AC50 of viability decrease ([4]; run: 1) | log AC50 of viability decrease ([4]; run: 2) |
| --- | --- | --- | --- | --- | --- | --- | --- | --- | --- | --- | --- | --- | --- | --- | --- | --- | --- | --- | --- | --- | --- | --- | --- | --- | --- | --- | --- | --- | --- | --- | --- | --- | --- | --- | --- | --- |
| O=C(/C=C/c1cccc(S(=O)(=O)Nc2ccccc2)c1)NO [Belinostat] | 98% | 97.2% | 102% | 90.3% | 91% | 76.8% | 58.8% | 50% | 30.8% | 24.8% | 16.9% | 106% | 113% | 100% | 77.6% | 22.6% | 1.51% | -0.676% | -1.31% | -1.47% | -1.41% | -1.53% | 96.9% | 97.5% | 114% | 112% | 98.3% | 66.9% | 24.2% | 6.32% | 4.85% | 3.72% | 2.46% | -6.08 | -7.48 | -6.58 |
| COc1cc2ncn(-c3cc(OCc4ccccc4C(F)(F)F)c(C(N)=O)s3)c2cc1OC | 99.6% | 98.2% | 95.3% | 101% | 96.4% | 53.5% | 23.3% | 25% | 19% | 15.9% | 19.5% | 98.9% | 104% | 97.7% | 102% | 92.5% | 61.9% | 20% | 13.7% | 10.7% | 10.3% | 12.5% | 98.7% | 99.2% | 101% | 104% | 98.3% | 77.4% | 21.3% | 9.88% | 6.91% | 5.55% | 5.97% | -6.78 | -6.68 | -6.53 |
| CC(C)C(=O)Nc1ncc(-c2cc(C(F)F)nn2-c2c(Cl)cccc2Cl)s1 [BMS-5] | 96.8% | 95.3% | 91% | 99.7% | 108% | 94.3% | 95.7% | 97.5% | 79.9% | 73.8% | 19.7% | 85.8% | 91% | 86.7% | 117% | 120% | 100% | 104% | 103% | 98.9% | 66.9% | 7.36% | 79.3% | 92.4% | 97.8% | 99.3% | 102% | 89.4% | 101% | 105% | 97.8% | 29% | 4.09% | -4.73 | -4.73 | -4.93 |
| CC1(C)OC/2=C(\[C@H](NCC3=CC=CC=C3)[C@@H]1O)C(=O)C4=CC=CC=C4C2=O | 103% | 110% | 106% | 110% | 108% | 106% | 113% | 110% | 109% | 47% | 5.37% | 128% | 133% | 129% | 135% | 130% | 117% | 116% | 90.3% | 24.1% | 9.83% | 8.46% | 107% | 112% | 110% | 111% | 109% | 107% | 94.2% | 82.4% | 22.3% | 5.63% | 4.3% | -4.88 | -5.63 | -5.58 |
| C=CCO/N=C(/C[C@H]1O[C@@H]2O[C@]3(C)CC[C@H]4[C@H](C)CC[C@@H]([C@H]1C)[C@@]24OO3)[C@H]1O[C@@H]2O[C@]3(C)CC[C@H]4[C@H](C)CC[C@@H]([C@H]1C)[C@@]24OO3 [BTM-2C-dimer allyl oxime] | 97.5% | 96.4% | 100% | 97.7% | 101% | 64.3% | 35.7% | 31.6% | 30% | 23.4% | 9.18% | 90.3% | 100% | 94.2% | 56.3% | 28.8% | 14.6% | 18.5% | 20.9% | 18.3% | 14.7% | 10.9% | 95.8% | 92% | 97.2% | 37.4% | 10.7% | 8.51% | 8.58% | 8.23% | 9.68% | 8.79% | 7.1% | -6.63 | -7.63 | -7.78 |

Reference: the supplement of paper PMC4996465
